Results reported in paper PMC6212790.
The list shows a part of the results. At the low end of the ranking, values are background and their order means little.
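Note: rank score from −0.5 (least bound) to 0.5 (best bound).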

What follows are sequences tested against T1, GST-Rok (full length) (UniProt O34857) (assay: protein binding microarray). Settings: Rok is a gene silencer of Bacillus subtilis; high values mean tight binding; most listed sequences are background and not binding sites; double strand, one strand shown.
T1 sequence: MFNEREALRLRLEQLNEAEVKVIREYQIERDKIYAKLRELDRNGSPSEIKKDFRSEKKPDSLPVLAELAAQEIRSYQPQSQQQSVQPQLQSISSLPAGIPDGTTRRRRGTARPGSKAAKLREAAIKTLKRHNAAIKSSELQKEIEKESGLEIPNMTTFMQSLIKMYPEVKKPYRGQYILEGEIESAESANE
For AGGTCGAA, the binding signal was -0.00683 E-score.
For AGTTCGAA, the binding signal was 0.213 E-score.
Work on CGTGCGCA yielded a binding signal of -0.155 E-score.
Work on GGAAACGA yielded a binding signal of -0.156 E-score.
CACGTCTA was tested, and the binding signal was -0.221 E-score.
With GGTATGCA the binding signal was 0.143 E-score.
GCGACCTA showed a binding signal of 0.0632 E-score.
Work on CGAGTTCA yielded a binding signal of 0.151 E-score.
For AATGGATA, the binding signal was 0.117 E-score.
Work on GCCTTGGA yielded a binding signal of -0.271 E-score.
With CCACAGAA the binding signal was 0.0919 E-score.
ACTGGAAC was tested, and the binding signal was 0.102 E-score.
In the case of ACTAACAG, the binding signal is reported as 0.0984 E-score.
GAACGTAA showed a binding signal of -0.0377 E-score.
CTACCTAC gave a binding signal of 0.346 E-score.
With ATCTTCCA the binding signal was 0.0738 E-score.
In the case of AGATAGCC, the binding signal is reported as 0.0431 E-score.
GGGTATGA was tested, and the binding signal was 0.0637 E-score.
GAAACTCC was tested, and the binding signal was -0.0923 E-score.
With GCCCAACC the binding signal was -0.287 E-score.
With CCTCAGCC the binding signal was -0.314 E-score.
For CTCGGGGC, the binding signal was -0.169 E-score.
GGTACTAC was tested, and the binding signal was 0.212 E-score.
CAATACTC showed a binding signal of 0.0708 E-score.
AACACAGA gave a binding signal of -0.0373 E-score.
In the case of ACGCCCGT, the binding signal is reported as -0.212 E-score.
ACGAACTA was tested, and the binding signal was 0.321 E-score.
For ACTAGAGG, the binding signal was -0.111 E-score.
Work on GAGTGGTA yielded a binding signal of 0.283 E-score.
CTGAATCA showed a binding signal of -0.0874 E-score.
AATGGAAG gave a binding signal of -0.104 E-score.
Work on TGGTTTAA yielded a binding signal of -0.0708 E-score.
GGAGCGGA gave a binding signal of -0.237 E-score.
Sequence GCGCTTTA has a binding signal of -0.22 E-score.
ATTGCATG was tested, and the binding signal was 0.232 E-score.
ACTAGAGA gave a binding signal of -0.0107 E-score.
Work on TATTATAA yielded a binding signal of 0.191 E-score.
ATTGACCC gave a binding signal of -0.24 E-score.
CCTCGTAA showed a binding signal of 0.111 E-score.
For AGCCGCAC, the binding signal was -0.163 E-score.
For CAACTCAG, the binding signal was 0.0431 E-score.
For CGGCAGTA, the binding signal was -0.0498 E-score.
In the case of ATGCGATG, the binding signal is reported as 0.158 E-score.
In the case of CAACATTA, the binding signal is reported as 0.173 E-score.
ACAGGTCC gave a binding signal of -0.238 E-score.
In the case of GAGGATCC, the binding signal is reported as -0.0422 E-score.
For AAGGATGG, the binding signal was -0.0766 E-score.
CGAAGTCC gave a binding signal of -0.0686 E-score.
Sequence GCGAGAAC has a binding signal of -0.0998 E-score.
CCGAGCTA showed a binding signal of -0.0443 E-score.
Sequence CAGGTTCC has a binding signal of -0.216 E-score.
For TCACCCAA, the binding signal was 0.222 E-score.
Sequence ATTGGACG has a binding signal of 0.0712 E-score.
With AGGCGCGA the binding signal was -0.15 E-score.
In the case of GAATCGTC, the binding signal is reported as 0.0347 E-score.
In the case of CCATACGG, the binding signal is reported as -0.189 E-score.
GTCACTGA gave a binding signal of -0.109 E-score.
Work on AAGATCGC yielded a binding signal of -0.0328 E-score.
GGATTAGA was tested, and the binding signal was 0.0143 E-score.
Work on AGACTAAT yielded a binding signal of 0.167 E-score.
With CTTCCCAA the binding signal was -0.198 E-score.
Work on AGTAGGGG yielded a binding signal of -0.205 E-score.
AAGGTGAA was tested, and the binding signal was -0.115 E-score.
In the case of GGTTTCGA, the binding signal is reported as -0.238 E-score.
In the case of CCGGTGCG, the binding signal is reported as -0.29 E-score.
Work on ATAGCGAC yielded a binding signal of 0.0894 E-score.
In the case of GTGCGGGA, the binding signal is reported as -0.198 E-score.
In the case of GGACGTAA, the binding signal is reported as 0.0485 E-score.
AAGGAAGC gave a binding signal of -0.0428 E-score.
Sequence GCCGGAGC has a binding signal of -0.322 E-score.
ACTGTTAC was tested, and the binding signal was 0.217 E-score.
For CAACATTG, the binding signal was 0.117 E-score.
Work on TATGAATA yielded a binding signal of 0.198 E-score.
Sequence GAGAGGAA has a binding signal of -0.168 E-score.
For CAGGATGA, the binding signal was -0.2 E-score.
With CTTTATAA the binding signal was 0.0826 E-score.
Sequence ATGGTCTA has a binding signal of 0.0573 E-score.
Sequence GACGAGAA has a binding signal of -0.207 E-score.
In the case of GGCCCCGA, the binding signal is reported as -0.282 E-score.
In the case of AGAAGTCA, the binding signal is reported as -0.0141 E-score.
For CCAGCTGA, the binding signal was -0.0708 E-score.
GCCCCCGA showed a binding signal of -0.304 E-score.
CACAAATG showed a binding signal of -0.0865 E-score.
With CCTCGGCA the binding signal was -0.378 E-score.
GGTACTCA was tested, and the binding signal was 0.0512 E-score.
With GCAACCAA the binding signal was 0.153 E-score.
Sequence AAACTTCG has a binding signal of 0.00691 E-score.
With CGATAAAC the binding signal was 0.125 E-score.
ACTTAACG gave a binding signal of 0.0884 E-score.
For CCTGTGTC, the binding signal was -0.121 E-score.
Work on TCTCTAAA yielded a binding signal of -0.0574 E-score.
Sequence GCAGTACA has a binding signal of 0.187 E-score.
Work on ACAAAAAA yielded a binding signal of 0.113 E-score.
TCACCAAA showed a binding signal of 0.0724 E-score.
Work on CGCCGCTC yielded a binding signal of -0.284 E-score.
With GGCCAACC the binding signal was -0.192 E-score.
ATACGAGA gave a binding signal of 0.082 E-score.
For GGGTTTTA, the binding signal was -0.0464 E-score.
In the case of CTGCAAAG, the binding signal is reported as -0.147 E-score.
In the case of ACCCCTTG, the binding signal is reported as -0.176 E-score.
Work on AACTGCAG yielded a binding signal of 0.212 E-score.
For CGCTCGGA, the binding signal was -0.343 E-score.
CATAGAAC showed a binding signal of 0.0494 E-score.
CTCCCTTA showed a binding signal of -0.197 E-score.
For TAGTTAAA, the binding signal was 0.12 E-score.
Work on ACCGGTTA yielded a binding signal of 0.164 E-score.
AACTCCGG gave a binding signal of -0.0993 E-score.
Work on CTGTCATC yielded a binding signal of 0.121 E-score.
AGTATTAA was tested, and the binding signal was 0.29 E-score.
With CCGCATAG the binding signal was -0.119 E-score.
For AGTCGCCG, the binding signal was -0.16 E-score.
In the case of AGTTAAGC, the binding signal is reported as -0.0477 E-score.
ACTCTTAA gave a binding signal of 0.0606 E-score.
AGAGTTCC showed a binding signal of 0.0145 E-score.
CTGGGAGA showed a binding signal of -0.21 E-score.
For AGATTGAT, the binding signal was 0.0811 E-score.
TAGCCCAA gave a binding signal of -0.0264 E-score.
CGGTTCTC gave a binding signal of 0.0956 E-score.
AATGAGGT showed a binding signal of 0.0415 E-score.
Work on ACACCCGT yielded a binding signal of -0.145 E-score.
In the case of ATGAATGC, the binding signal is reported as 0.142 E-score.
Work on AACCGGTA yielded a binding signal of 0.274 E-score.
For AGTCCACC, the binding signal was -0.238 E-score.
For TCTTGGCA, the binding signal was 0.00716 E-score.
Work on CATAGAAA yielded a binding signal of 0.129 E-score.
CATTTCTA showed a binding signal of 0.288 E-score.
GATCACAA gave a binding signal of -0.275 E-score.
With GCAAATTA the binding signal was 0.218 E-score.
TAACACGA showed a binding signal of 0.129 E-score.
GAGAGCAA was tested, and the binding signal was -0.36 E-score.
CCTTATGC was tested, and the binding signal was -0.115 E-score.
In the case of ATCGATCC, the binding signal is reported as 0.0914 E-score.
With GTACGCAA the binding signal was 0.263 E-score.
For ATCCCATC, the binding signal was 0.0128 E-score.
In the case of CACGCCAG, the binding signal is reported as -0.175 E-score.
For CATAGCCC, the binding signal was -0.102 E-score.
AGACATGG was tested, and the binding signal was -0.0718 E-score.
Work on CGTTCTAA yielded a binding signal of 0.0668 E-score.
ACGATCGG showed a binding signal of 0.0558 E-score.
Sequence CGCGCCTA has a binding signal of -0.0944 E-score.
AAATACTT was tested, and the binding signal was 0.259 E-score.
In the case of CGAGGAGC, the binding signal is reported as -0.324 E-score.
Sequence ATTTCGTA has a binding signal of 0.332 E-score.
CATGCCTC gave a binding signal of -0.202 E-score.
With ATTCATAG the binding signal was 0.279 E-score.
For AGGCCGGG, the binding signal was -0.361 E-score.
With CTCAGGCC the binding signal was -0.293 E-score.
Sequence GTCATCCA has a binding signal of -0.00614 E-score.
With ATCATGTG the binding signal was 0.0302 E-score.
Sequence GGCTTCAA has a binding signal of -0.0517 E-score.
In the case of TACTCCCA, the binding signal is reported as -0.026 E-score.
CCCATGAA gave a binding signal of -0.00573 E-score.
In the case of AATCGGTG, the binding signal is reported as 0.0554 E-score.
Work on CGCCCCCA yielded a binding signal of -0.167 E-score.
GATTATGC gave a binding signal of 0.176 E-score.
With ACCAACAG the binding signal was 0.0502 E-score.
With CTTCGGAA the binding signal was -0.149 E-score.
Work on CCCTAGCA yielded a binding signal of -0.156 E-score.
Work on AACGTGTA yielded a binding signal of -0.0386 E-score.
CGAACTAA gave a binding signal of 0.109 E-score.
Sequence CCCCCGGA has a binding signal of -0.467 E-score.
In the case of AAGTCAGT, the binding signal is reported as 0.0615 E-score.
For AACACACA, the binding signal was 0.0536 E-score.
With AGCTCGTC the binding signal was -0.181 E-score.
ATTGTTGA showed a binding signal of 0.0133 E-score.
With CCGATTCC the binding signal was -0.251 E-score.
For AGGGATAG, the binding signal was -0.176 E-score.
AGCCTTGC showed a binding signal of -0.292 E-score.
CTCAGAAG showed a binding signal of -0.0826 E-score.
For ACGGGTAG, the binding signal was 0.0412 E-score.
In the case of GACACTAC, the binding signal is reported as -0.0667 E-score.
With AACCATGT the binding signal was -0.00971 E-score.
